Data as given in article PMC3781321.
Results are given in words; binding and its absence hold for the method and conditions named. For some of these results: Binding seen in cells or lysates may run through a third protein. Some entries that bind do so weakly or less than the wild type.

Protein sequences, listed by entry. Tags and fused reporters are not part of them.
UniProt Q7TMB8: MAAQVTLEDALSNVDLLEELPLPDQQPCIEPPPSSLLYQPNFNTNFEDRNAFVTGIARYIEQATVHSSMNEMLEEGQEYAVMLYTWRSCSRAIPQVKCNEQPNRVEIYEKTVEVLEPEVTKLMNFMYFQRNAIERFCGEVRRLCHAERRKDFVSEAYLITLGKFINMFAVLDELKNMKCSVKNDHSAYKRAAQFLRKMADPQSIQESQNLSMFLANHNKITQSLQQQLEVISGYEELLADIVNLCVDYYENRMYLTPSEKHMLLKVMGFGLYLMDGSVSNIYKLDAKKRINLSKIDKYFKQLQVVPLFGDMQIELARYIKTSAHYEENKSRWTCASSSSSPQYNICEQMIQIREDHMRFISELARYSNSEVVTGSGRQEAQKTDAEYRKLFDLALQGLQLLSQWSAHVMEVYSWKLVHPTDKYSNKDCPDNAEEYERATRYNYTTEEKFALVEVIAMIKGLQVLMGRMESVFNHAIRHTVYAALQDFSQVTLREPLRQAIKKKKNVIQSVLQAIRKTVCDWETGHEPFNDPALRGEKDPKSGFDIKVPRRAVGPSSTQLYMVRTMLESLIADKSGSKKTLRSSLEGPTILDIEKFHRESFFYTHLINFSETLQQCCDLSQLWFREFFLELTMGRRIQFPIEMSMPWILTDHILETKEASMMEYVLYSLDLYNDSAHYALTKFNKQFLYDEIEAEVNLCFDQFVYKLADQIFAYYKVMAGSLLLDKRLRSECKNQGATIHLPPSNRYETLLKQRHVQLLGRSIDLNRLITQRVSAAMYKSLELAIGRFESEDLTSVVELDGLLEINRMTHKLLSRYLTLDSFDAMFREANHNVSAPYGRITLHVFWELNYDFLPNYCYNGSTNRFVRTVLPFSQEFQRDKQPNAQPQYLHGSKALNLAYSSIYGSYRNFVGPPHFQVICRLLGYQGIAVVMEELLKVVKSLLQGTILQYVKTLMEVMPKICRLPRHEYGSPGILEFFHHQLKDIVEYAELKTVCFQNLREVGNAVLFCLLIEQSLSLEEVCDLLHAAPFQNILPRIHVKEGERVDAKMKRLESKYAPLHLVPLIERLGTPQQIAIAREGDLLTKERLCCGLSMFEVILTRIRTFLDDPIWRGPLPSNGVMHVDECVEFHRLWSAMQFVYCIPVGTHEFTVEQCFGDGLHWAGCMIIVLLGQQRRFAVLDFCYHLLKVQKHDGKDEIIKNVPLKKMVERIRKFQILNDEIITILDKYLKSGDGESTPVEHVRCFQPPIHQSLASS
UniProt P63073: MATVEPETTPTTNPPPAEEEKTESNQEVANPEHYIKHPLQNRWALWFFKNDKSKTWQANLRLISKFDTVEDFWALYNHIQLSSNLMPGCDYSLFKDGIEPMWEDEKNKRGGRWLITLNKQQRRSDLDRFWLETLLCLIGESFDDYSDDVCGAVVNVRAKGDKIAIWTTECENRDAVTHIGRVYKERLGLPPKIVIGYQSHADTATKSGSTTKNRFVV
UniProt O08788: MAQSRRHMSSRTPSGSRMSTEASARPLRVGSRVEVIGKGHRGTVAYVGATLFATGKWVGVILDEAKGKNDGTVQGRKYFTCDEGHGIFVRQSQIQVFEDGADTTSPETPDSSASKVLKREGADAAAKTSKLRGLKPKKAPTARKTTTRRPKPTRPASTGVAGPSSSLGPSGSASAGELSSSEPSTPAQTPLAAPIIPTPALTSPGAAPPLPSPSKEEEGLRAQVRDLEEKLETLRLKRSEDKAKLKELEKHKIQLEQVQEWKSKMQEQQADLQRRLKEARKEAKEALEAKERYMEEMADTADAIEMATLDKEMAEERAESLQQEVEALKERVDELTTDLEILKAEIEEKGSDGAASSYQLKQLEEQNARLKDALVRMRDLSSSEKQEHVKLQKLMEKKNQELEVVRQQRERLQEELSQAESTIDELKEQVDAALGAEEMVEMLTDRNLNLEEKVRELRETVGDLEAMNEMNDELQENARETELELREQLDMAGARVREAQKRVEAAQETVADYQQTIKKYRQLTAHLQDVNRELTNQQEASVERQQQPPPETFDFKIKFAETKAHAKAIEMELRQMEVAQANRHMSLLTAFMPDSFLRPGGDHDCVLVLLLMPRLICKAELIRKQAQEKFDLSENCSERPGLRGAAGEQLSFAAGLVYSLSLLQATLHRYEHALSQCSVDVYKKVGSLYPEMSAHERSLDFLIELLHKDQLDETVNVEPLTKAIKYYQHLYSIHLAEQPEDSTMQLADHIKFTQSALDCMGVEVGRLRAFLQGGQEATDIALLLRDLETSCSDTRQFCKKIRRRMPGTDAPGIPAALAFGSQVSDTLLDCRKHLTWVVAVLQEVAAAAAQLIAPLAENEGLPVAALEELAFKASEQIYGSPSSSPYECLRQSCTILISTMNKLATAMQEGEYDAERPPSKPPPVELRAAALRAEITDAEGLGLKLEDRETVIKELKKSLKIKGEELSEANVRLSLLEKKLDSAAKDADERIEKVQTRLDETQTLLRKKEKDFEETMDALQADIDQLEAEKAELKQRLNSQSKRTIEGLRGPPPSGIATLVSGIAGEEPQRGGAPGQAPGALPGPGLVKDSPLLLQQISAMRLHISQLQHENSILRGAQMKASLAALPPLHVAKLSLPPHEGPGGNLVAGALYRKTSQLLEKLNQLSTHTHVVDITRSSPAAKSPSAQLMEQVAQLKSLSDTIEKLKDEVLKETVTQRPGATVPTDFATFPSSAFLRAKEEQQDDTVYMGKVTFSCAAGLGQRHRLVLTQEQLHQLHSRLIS
UniProt P29341: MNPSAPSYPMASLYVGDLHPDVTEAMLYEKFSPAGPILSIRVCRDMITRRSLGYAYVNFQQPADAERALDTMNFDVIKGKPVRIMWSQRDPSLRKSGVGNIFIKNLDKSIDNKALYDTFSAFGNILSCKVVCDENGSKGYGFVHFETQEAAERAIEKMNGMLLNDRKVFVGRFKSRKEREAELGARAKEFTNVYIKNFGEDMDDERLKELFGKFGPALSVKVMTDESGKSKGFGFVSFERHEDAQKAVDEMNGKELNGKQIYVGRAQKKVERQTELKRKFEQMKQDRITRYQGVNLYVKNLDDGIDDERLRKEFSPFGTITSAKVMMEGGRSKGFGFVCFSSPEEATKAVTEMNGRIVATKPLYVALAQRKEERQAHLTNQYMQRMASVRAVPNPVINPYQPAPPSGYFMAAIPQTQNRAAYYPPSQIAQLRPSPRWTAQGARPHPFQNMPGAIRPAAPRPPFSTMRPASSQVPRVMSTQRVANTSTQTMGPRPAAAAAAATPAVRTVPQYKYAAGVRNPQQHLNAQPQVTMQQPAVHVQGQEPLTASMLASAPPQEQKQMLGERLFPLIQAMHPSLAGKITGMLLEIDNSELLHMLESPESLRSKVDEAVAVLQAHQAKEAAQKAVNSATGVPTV

T1: NCKAP1, mouse, endogenous (mouse (endogenous in cortex)) (UniProt P28660)
T1 sequence: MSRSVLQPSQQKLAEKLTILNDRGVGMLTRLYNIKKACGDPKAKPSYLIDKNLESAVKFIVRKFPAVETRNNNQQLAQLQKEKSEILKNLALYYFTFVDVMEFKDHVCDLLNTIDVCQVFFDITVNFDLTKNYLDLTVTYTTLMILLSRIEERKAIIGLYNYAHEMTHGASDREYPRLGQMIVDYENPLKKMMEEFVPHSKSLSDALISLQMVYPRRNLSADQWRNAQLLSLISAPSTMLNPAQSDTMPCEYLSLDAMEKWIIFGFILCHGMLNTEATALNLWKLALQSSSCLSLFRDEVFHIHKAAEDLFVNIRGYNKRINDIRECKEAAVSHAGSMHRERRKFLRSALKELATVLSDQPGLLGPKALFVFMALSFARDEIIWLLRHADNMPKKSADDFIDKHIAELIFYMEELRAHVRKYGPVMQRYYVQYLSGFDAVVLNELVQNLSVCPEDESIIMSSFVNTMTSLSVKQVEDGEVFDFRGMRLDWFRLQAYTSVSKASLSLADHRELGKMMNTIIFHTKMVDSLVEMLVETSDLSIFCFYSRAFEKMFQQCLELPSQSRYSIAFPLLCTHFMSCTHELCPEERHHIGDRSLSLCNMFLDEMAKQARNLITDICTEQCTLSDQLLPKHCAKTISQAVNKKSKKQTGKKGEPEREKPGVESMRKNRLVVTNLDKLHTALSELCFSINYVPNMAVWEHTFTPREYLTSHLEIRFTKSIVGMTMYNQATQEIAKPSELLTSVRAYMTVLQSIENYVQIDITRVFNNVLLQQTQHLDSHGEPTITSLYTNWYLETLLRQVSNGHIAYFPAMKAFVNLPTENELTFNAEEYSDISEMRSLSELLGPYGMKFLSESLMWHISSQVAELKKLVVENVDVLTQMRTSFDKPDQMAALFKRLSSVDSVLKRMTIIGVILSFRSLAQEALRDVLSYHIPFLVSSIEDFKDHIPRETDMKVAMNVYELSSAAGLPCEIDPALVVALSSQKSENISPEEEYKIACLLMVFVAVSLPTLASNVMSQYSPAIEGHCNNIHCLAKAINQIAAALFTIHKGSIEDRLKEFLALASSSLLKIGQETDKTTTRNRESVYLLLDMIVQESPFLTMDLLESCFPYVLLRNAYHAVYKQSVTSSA

T2: Caprin1, mouse, endogenous (mouse (endogenous in cortex)) (UniProt Q60865)
T2 sequence: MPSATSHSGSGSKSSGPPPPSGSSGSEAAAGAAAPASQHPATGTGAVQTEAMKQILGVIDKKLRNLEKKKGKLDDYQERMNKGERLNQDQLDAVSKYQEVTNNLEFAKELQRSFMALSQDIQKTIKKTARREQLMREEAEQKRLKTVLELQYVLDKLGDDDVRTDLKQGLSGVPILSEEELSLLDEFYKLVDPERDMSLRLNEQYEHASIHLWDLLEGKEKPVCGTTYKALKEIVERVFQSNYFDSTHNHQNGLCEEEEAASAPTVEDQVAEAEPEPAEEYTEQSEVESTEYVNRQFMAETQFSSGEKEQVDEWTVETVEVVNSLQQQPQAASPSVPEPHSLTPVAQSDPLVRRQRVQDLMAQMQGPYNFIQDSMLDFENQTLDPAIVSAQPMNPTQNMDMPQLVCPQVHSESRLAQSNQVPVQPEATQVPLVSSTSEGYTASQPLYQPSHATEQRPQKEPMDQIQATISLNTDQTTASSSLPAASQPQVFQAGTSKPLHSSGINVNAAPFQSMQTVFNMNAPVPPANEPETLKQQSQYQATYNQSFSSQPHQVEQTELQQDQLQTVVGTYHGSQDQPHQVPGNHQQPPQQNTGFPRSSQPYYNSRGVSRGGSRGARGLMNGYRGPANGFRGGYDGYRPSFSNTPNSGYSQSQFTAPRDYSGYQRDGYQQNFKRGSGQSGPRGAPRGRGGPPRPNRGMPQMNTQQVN


How the values were obtained:
[1] = biological target: cytoplasmic FMRP-interacting protein 1 (CYFIP1), mouse, endogenous (mouse (endogenous in cortex)) (UniProt Q7TMB8); experiment: co-IP; mouse cortical lysates, endogenous proteins, no RNase; reverse IPs of the interactors (Figure 6B, S6) and CYFIP1 IP (Figure 6C, lane 2); rabbit and mouse IgGs as controls
[2] = biological target: cytoplasmic FMRP-interacting protein 1 (CYFIP1), mouse, endogenous (mouse (endogenous in cortex)) (UniProt Q7TMB8); experiment: co-IP; CYFIP1 IP from RNase-treated mouse cortical lysates
[3] = biological target: eIF4E, mouse, endogenous (mouse (endogenous in cortex)) (UniProt P63073); experiment: co-IP; mouse cortical synaptoneurosomes, endogenous proteins; IP of CYFIP1, NCKAP1 or eIF4E, control IgGs; also after BDNF (100 ng/ml, 30 min) with/without NSC23766 (200 uM, 10 min pretreatment)
[4] = biological target: T1, NCKAP1, mouse, endogenous (mouse (endogenous in cortex)); experiment: as above
[5] = biological target: eIF4E, mouse, endogenous (mouse (endogenous in cortex)) (UniProt P63073); experiment: m7GTP chromatography; m7GTP chromatography on mouse cortical extracts; eIF4E and proteins associated with it isolated on the cap analogue
[6] = biological target: eIF4E, mouse, endogenous (mouse (endogenous in cortex)) (UniProt P63073); experiment: co-IP; mouse cortical lysates, endogenous proteins, no RNase; reverse IPs of the interactors (Figure 6B, S6) and CYFIP1 IP (Figure 6C, lane 2); rabbit and mouse IgGs as controls
[7] = biological target: T2, Caprin1, mouse, endogenous (mouse (endogenous in cortex)); experiment: as above
[8] = biological target: DCTN1, mouse, endogenous (mouse (endogenous in cortex)) (UniProt O08788); experiment: as above
[9] = biological target: PABP1, mouse, endogenous (mouse (endogenous in cortex)) (UniProt P29341); experiment: as above
[10] = biological target: cytoplasmic FMRP-interacting protein 1 (CYFIP1), mouse, endogenous (mouse (endogenous in cortex)) (UniProt Q7TMB8); experiment: co-IP; mouse cortical synaptoneurosomes, endogenous proteins; IP of CYFIP1, NCKAP1 or eIF4E, control IgGs; also after BDNF (100 ng/ml, 30 min) with/without NSC23766 (200 uM, 10 min pretreatment)

| Molecule | binding [1] | binding [2] | binding [3] | binding [4] | binding [5] | binding [10] | also measured |
| --- | --- | --- | --- | --- | --- | --- | --- |
| DCTN1, mouse, endogenous (from UniProt O08788 1-1281) | binds | binds |  |  |  |  |  |
| PABP1, mouse, endogenous (from UniProt P29341 1-636) | binds | binds |  |  |  |  |  |
| eIF4E, mouse, endogenous (from UniProt P63073 1-217) | binds | binds |  | no binding |  | binds |  |
| NCKAP1, mouse, endogenous (protein, UniProt P28660 1-1128) MSRSVLQPSQQKLAEKLTILNDRGVGMLTRLYNIKKACGDPKAKPSYLIDKNLESAVKFIVRKFPAVETRNNNQQLAQLQKEKSEILKNLALYYFTFVDVMEFKDHVCDLLNTIDVCQVFFDITVNFDLTKNYLDLTVTYTTLMILLSRIEERKAIIGLYNYAHEMTHGASDREYPRLGQMIVDYENPLKKMMEEFVPHSKSLSDALISLQMVYPRRNLSADQWRNAQLLSLISAPSTMLNPAQSDTMPCEYLSLDAMEKWIIFGFILCHGMLNTEATALNLWKLALQSSSCLSLFRDEVFHIHKAAEDLFVNIRGYNKRINDIRECKEAAVSHAGSMHRERRKFLRSALKELATVLSDQPGLLGPKALFVFMALSFARDEIIWLLRHADNMPKKSADDFIDKHIAELIFYMEELRAHVRKYGPVMQRYYVQYLSGFDAVVLNELVQNLSVCPEDESIIMSSFVNTMTSLSVKQVEDGEVFDFRGMRLDWFRLQAYTSVSKASLSLADHRELGKMMNTIIFHTKMVDSLVEMLVETSDLSIFCFYSRAFEKMFQQCLELPSQSRYSIAFPLLCTHFMSCTHELCPEERHHIGDRSLSLCNMFLDEMAKQARNLITDICTEQCTLSDQLLPKHCAKTISQAVNKKSKKQTGKKGEPEREKPGVESMRKNRLVVTNLDKLHTALSELCFSINYVPNMAVWEHTFTPREYLTSHLEIRFTKSIVGMTMYNQATQEIAKPSELLTSVRAYMTVLQSIENYVQIDITRVFNNVLLQQTQHLDSHGEPTITSLYTNWYLETLLRQVSNGHIAYFPAMKAFVNLPTENELTFNAEEYSDISEMRSLSELLGPYGMKFLSESLMWHISSQVAELKKLVVENVDVLTQMRTSFDKPDQMAALFKRLSSVDSVLKRMTIIGVILSFRSLAQEALRDVLSYHIPFLVSSIEDFKDHIPRETDMKVAMNVYELSSAAGLPCEIDPALVVALSSQKSENISPEEEYKIACLLMVFVAVSLPTLASNVMSQYSPAIEGHCNNIHCLAKAINQIAAALFTIHKGSIEDRLKEFLALASSSLLKIGQETDKTTTRNRESVYLLLDMIVQESPFLTMDLLESCFPYVLLRNAYHAVYKQSVTSSA |  |  | no binding |  | no binding | binds |  |

Continued, in another order:

| binding [1] | binding [2] | binding [3] | binding [4] | binding [5] | binding [10] | Molecule | also measured |
| --- | --- | --- | --- | --- | --- | --- | --- |
|  |  | binds | binds | binds |  | cytoplasmic FMRP-interacting protein 1 (CYFIP1), mouse, endogenous (from UniProt Q7TMB8 1-1253) | binding [6]: binds; binding [7]: binds; binding [8]: binds; binding [9]: binds |
|  |  |  |  |  | binds | WAVE1, mouse, endogenous (protein, UniProt Q8R5H6 1-559) MPLVKRNIDPRHLCHTALPRGIKNELECVTNISLANIIRQLSSLSKYAEDIFGELFNEAHSFSFRVNSLQERVDRLSVSVTQLDPKEEELSLQDITMRKAFRSSTIQDQQLFDRKTLPIPLQETYDVCEQPPPLNILTPYRDDGKEGLKFYTNPSYFFDLWKEKMLQDTEDKRKEKRKQKQKNLDRPHEPEKVPRAPHDRRREWQKLAQGPELAEDDADLLHKHIEVANGPASHYETRPQTYVDHMDGSYSLSALPFSQMSELLTRAEERVLVRPHEPPPPPPMHGAGDAKPTPTCISSATGLIENRPQSPAAGRTPVFVSPTPPPPPPPLPSALSTSSLRASMTSTPPPPVPPPPPPPATALQAPAVPPPPAPLQIAPGVLHPAPPPIAPPLVQPSPPVARAAPVCETVPVHPLPQGEVQGLPPPPPPPPLPPPGIRPSSPVAVAALAHPPSGLHPAPSTAPGPHAPLMPPSPPSQVLPASEPKRHPSTLPVISDARSVLLEAIRKGIQLRKVEEQREQEAKHERIENDVATILSRRIAVEYSDSEDDSEFDEVDWLE |  |
